Experimental data from article PMC12136788.
Residue numbers refer to the chain shown, from its start. The list shows a part of the results.

T1: UNK ZnF1-3 (human, UniProt Q9C0B0 31-174)
T1 sequence: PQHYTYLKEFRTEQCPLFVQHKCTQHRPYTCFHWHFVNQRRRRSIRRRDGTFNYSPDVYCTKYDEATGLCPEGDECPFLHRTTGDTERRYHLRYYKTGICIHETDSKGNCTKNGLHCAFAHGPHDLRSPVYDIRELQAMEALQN

B1: chr12:67691335:67691336:+_ENSG00000111530_ENST00000540319|hu_hu|motif|central (ssRNA)
RNA: GGGAGUUCUACAGUCCGACGAUCCAUAGAAUCAUUUUUGGACAACUCUGACAACAGAUGUUCAAUAAGAUCUACAAAAACGGUAUUUCCACAGCUCAUAACCAGAUGGCCAAGAGCGAUAAUGGUUCUUUUCCUCACUGCAAGCAACAGAGGAUUGAGCAUCA
B2: chr8:95500983:95500984:-_ENSG00000164944_ENST00000437199|hu_hu|hu_hu_hu_mus_True|1_88 (ssRNA)
RNA: GGGAGUUCUACAGUCCGACGAUCAGAACACAUCUAUCGAGUAAAGGGAGCGUACAUACGGCCUCUACCACUGCCUCCACUAACAAACUUUCCUCUCGAGCCUCCACUGCCGCUAUUUGUACUAGCCCAGGACGGUCCCAAGUCCAACAGAGGAUUGAGCAUCA
B3: chr9:95013113:95013114:-_ENSG00000196305_ENST00000443024|hu_hu|hu_hu_hu_mus_False|58_68 (ssRNA)
RNA: GGGAGUUCUACAGUCCGACGAUCCUCAGUCAGAAAGGGCGUGUAAGGGGCCAUCAGUCUGCACAGAGAAAGCAGAACACUAAACAAUGUCUCCAGAGCCAUGACACAGUCUUCCACCCCACUCUCACCCUUUAACCUCCUCCUCAACAGAGGAUUGAGCAUCA
B4: chr7:54825262:54825263:-_ENSG00000132432_ENST00000352861|hu_hu|hu_hu_hu_mus_False|28_108 (ssRNA)
RNA: GGGAGUUCUACAGUCCGACGAUCCUGACUUGGCUCAUCCACAAACUGCAUUACCUGAUCCAUGUUUGUUGGAUGGCGGAUUGAGAGCGUAGAGACACGUAGCUCAGGGAGCUUGCUAGCCCAACGGAACCGGAAGCUGGCAACCAACAGAGGAUUGAGCAUCA
B5: chr2:86371542:86371543:-_ENSG00000132305_ENST00000449247|hu_mus|FALSE|FALSE (ssRNA)
RNA: GGGAGUUCUACAGUCCGACGAUCCCAGUCCUGUGCCACUCUUCUGGACUCCCCUUUGAGCUGAUUGACAAACUUUGCUGCCAGCUCCAGGUCACCAUGCUCAAUACAAUAGGAGGCAUAUGAGAGCAAUUUAAAUGUAUUUAUCAACAGAGGAUUGAGCAUCA
B6: chr1:163117127:163117128:-_ENSG00000143248_ENST00000313961|hu_mus|hu_hu_hu_mus_False|18_68 (ssRNA)
RNA: GGGAGUUCUACAGUCCGACGAUCUGCUACAAAGGAUGUAACUCAACUCACAGGGCAACUUUUGGAAGCCUGGCUAAAUGACUACUUGAUUAGCUCCUUAUAAAAUUCAGAGCGCACAAAGCGAGGCAGAGAAUCCUUCUCCAUCAACAGAGGAUUGAGCAUCA
B7: 86293490_86294785_1199_CDS_ENSG00000135018_ENST00000376395|human|control|control (ssRNA)
RNA: GGGAGUUCUACAGUCCGACGAUCUGGAUUCCUGGCAAGUUCCAACGUUUGUCUCAUUAUAUCUGGAUUAUUCAACAUAUGACUAAUUUCUGGAUUUCUCUGUAUCAACUGCUGCAUUUGUGGAUUGGCCAUAAUUAACUGUCUCAACAGAGGAUUGAGCAUCA
B8: chr17:62496873:62496874:-_ENSG00000108654_ENST00000581693|hu_mus|FALSE|FALSE (ssRNA)
RNA: GGGAGUUCUACAGUCCGACGAUCUCCAAUUCGAUGAAUAUAAUCCUCUGAGGAGUUAGGGUAGUCAUAAUUGAUGACAAAUUUCACAUCUUCCACAUCUAGCCCUCUGGAGGCCACAUCGGUAGCAAUCAGAAUAGGAGCUUUCAACAGAGGAUUGAGCAUCA
B9: chr2:42509997:42509998:+_ENSG00000143924_ENST00000318522|hu_mus|hu_hu_hu_mus_True|58_108 (ssRNA)
RNA: GGGAGUUCUACAGUCCGACGAUCUCGCUGAGUUCUCUCCUCAUAAUUAAACAGGACUACCACUGAGGCGAUAAAAUAAACUAUUUUCCCUGUGGGAAGCAGGUAUACAUUCGCUCUACAGUCCUUUCCUCGAUAACCGUAUACCAACAGAGGAUUGAGCAUCA
B10: chr12:16048344:16048345:+_ENSG00000023734_ENST00000419869|hu_hu|hu_hu_hu_mus_True|1_8 (ssRNA)
RNA: GGGAGUUCUACAGUCCGACGAUCAGAUCGUCCAUAAGUAAUAACCAAAAUCUCUCCUUCAGGAAUAUACUCCAUGCUGCUAACAGACAUAUUAAAAUUCAGAGAUUUCACUUCUGUCAUUGUGGCAUGAUCCCAAAGUCGAACCAACAGAGGAUUGAGCAUCA
B11: 55348197_55348317_2729_3pUTR_ENSMUSG00000021488_ENSMUST00000099490|mouse|control|control (ssRNA)
RNA: GGGAGUUCUACAGUCCGACGAUCGAAGCAGAAGAAAACAGUAAUGGCUUUGAUGCCUUUGCCGUUCCAGAAUCACUUACGUCUUCACUUAAUGAUCUGUACGAGAGCUCCUUCAGUUCCGAAAGAACGUGCUUCACCACUGCUCAACAGAGGAUUGAGCAUCA
B12: chr13:95058138:95058139:+_ENSG00000183098_ENST00000377047|hu_mus|motif|central (ssRNA)
RNA: GGGAGUUCUACAGUCCGACGAUCAUUAAACCUUUAACAUUAAAUCAGUCUACAAAACCAUACAACGGGCAGUGACAAUGACGGGGAAGGGCACGUUAAAAACAUUUUGUCCAUGUCUGUGUAAGAUGACCAACGAUGUGGCUUCAACAGAGGAUUGAGCAUCA
B13: chr8:95500983:95500984:-_ENSG00000164944_ENST00000437199|hu_hu|hu_hu_hu_mus_True|88_98 (ssRNA)
RNA: B2 RNA with C37U, G38C, A39G, G40U, U41G, A42U, G45A, A140G, U142C
B14: 144934483_144934603_1449_3pUTR_ENSMUSG00000038970_ENSMUST00000041804|mouse|control|control (ssRNA)
RNA: GGGAGUUCUACAGUCCGACGAUCUGCUGUUCAAAGUCGACCUCCGAGUCCCGCUGGCUCUGCAUCCUCAGGUAAGUUAGCAGACGGUGCACGUCUUCUGCGGCUGGCCUCUUGUCAGGAGGCAGCCAGCAGAACUGCAGCACUCAACAGAGGAUUGAGCAUCA
B15: chrX:20248820:20248821:+_ENSMUSG00000001924_ENSMUST00000001989|mus_mus|mus_mus_mus_hu_True|98_108 (ssRNA)
RNA: GGGAGUUCUACAGUCCGACGAUCGGCAAAGUCAGUCAUCACAAAGUCAGGUUCUGCCAGUGAGGCCACCAAGGAUUUAAAGCUAAUCUUCUUAGGUACUUUGACCUGACUGACGAUGCCUCCACGGAUGUAGUCGGAGAAGUUCAACAGAGGAUUGAGCAUCA
B16: chr5:174939138:174939139:+_ENSG00000164466_ENST00000321442|hu_hu|motif|central (ssRNA)
RNA: GGGAGUUCUACAGUCCGACGAUCGCCAACUUUGAGUUCCCUUUGCCUCAUUAAUGGAAUAUUAAUGCAAUUAGCAGCAGCGGCGGCAGCAAAGGGAACAAAACGUCCUAUCAGUGGUGAGACAUGCUUGGUCAAUGCAUUGAGCAACAGAGGAUUGAGCAUCA
B17: 160274744_160274864_4193_CDS_ENSG00000109756_ENST00000264431|human|control|control (ssRNA)
RNA: GGGAGUUCUACAGUCCGACGAUCGUGAGUAUGCCCGAAUGGAAGAGUCUCCCAGCUUCUCUGGUGCUGGAUCGUCUGUAUAUUAUCAUGGGAGCCACUUGAGCAUGACGUCCAGCUCCCACGGCCACUGUCAGCAGCAUCAAGCAACAGAGGAUUGAGCAUCA
B18: 44146565_44147813_1356_3pUTR_ENSMUSG00000035696_ENSMUST00000045793|mouse|control|control (ssRNA)
RNA: GGGAGUUCUACAGUCCGACGAUCUCAAUAUCUGCUUUAGUCAGUCCCCGAGGUUUCGCCUCUCCCAGUCUCUCCGCCAAGUUUAACAGGGCCUCAUAAUUUUCAACUUCUCCGUCUUCUACAUCUAAUUCAAAGCUGAAGGUUCAACAGAGGAUUGAGCAUCA
B19: 74703758_74703878_3027_3pUTR_ENSG00000104343_ENST00000602593|human|control|control (ssRNA)
RNA: GGGAGUUCUACAGUCCGACGAUCGAUAUUCUGGUUGUCUUUCAACAAUGCAUUACAGAGAAAUAUUCUUUUUAUUAUUACAAGCCAUUAAUUGCUCUCUGUAGAGCAAUGACUCAGAUAAAUGCCUUAUGACUUUUAAUAAUGCAACAGAGGAUUGAGCAUCA
B20: chr7:71034301:71034302:-_ENSMUSG00000052040_ENSMUST00000063694|mus_mus|FALSE|FALSE (ssRNA)
RNA: GGGAGUUCUACAGUCCGACGAUCGGACUUUGGAAUAAAAUUCCUGAAUCUGGAAUGUGAAUUCCUGAGACAUGAAAUGUGUUCAGAGUGUGGCUUUCUCUGCCUCACACAAAUGACUUUGGGAGGGACUACACUUUGGAACUCCAACAGAGGAUUGAGCAUCA
B21: chr2:25464519:25464520:-_ENSG00000119772_ENST00000380746|hu_mus|FALSE|FALSE (ssRNA)
RNA: GGGAGUUCUACAGUCCGACGAUCGUACAUGAUCUUUCCCUGGUGCCGCACCAUGCCCACCGUGAUGGAGUCCUCACACACCUCGGAGGCAAUGUAGCGGUCCACUUGGAUGCCCAGGUCCUUCAGCACCAGGAGCCCUGUAGCCAACAGAGGAUUGAGCAUCA
B22: chr17:73774127:73774128:-_ENSG00000132475_ENST00000254810|hu_mus|motif|central (ssRNA)
RNA: GGGAGUUCUACAGUCCGACGAUCUGACAAGACUCCCCACCACUUGUGAAUGUAAAACAUUUAAUUUAAAAAUGUUGAACACGGCAAUAUAUAAAAUAGCUAUUAUAAAUGCACAUAGUGUAUUCUAUAGCUGCCAGGUUUACUCAACAGAGGAUUGAGCAUCA

molecular target: T1, UNK ZnF1-3; assay: nsRBNS (natural sequence RNA bind-n-seq); RBNS binding buffer (assumed for nsRBNS): 25 mM Tris pH 7.5, 150 mM KCl, 3 mM MgCl2, 0.01% Triton X-100, 500 ug/ml BSA, 20 U/ml SUPERase-In, 4 C; UNK is unkempt and MSI1 is Musashi-1; names of the RNAs are library labels; protein concentration not given here; high values mean tight binding

Binder	binding signal [enrichment R]
B1	0.807
B2	1.47
B3	1.61
B4	0.674
B5	1.27
B6	1.15
B7	0.779
B8	0.829
B9	1.53
B10	1.08
B11	0.552
B12	1.55
B13	1.14
B14	0.529
B15	0.819
B16	0.864
B17	0.755
B18	0.925
B19	0.371
B20	0.602
B21	0.797
B22	1.13
